The full ranking holds about 33,000 sequences; the median of “E-score (-0.5 to 0.5)” is about -0.012, and the highest 2% start at about 0.27. The list shows a part of the results.
Target: T1, Vhr1 (UniProt P40522)
T1 sequence: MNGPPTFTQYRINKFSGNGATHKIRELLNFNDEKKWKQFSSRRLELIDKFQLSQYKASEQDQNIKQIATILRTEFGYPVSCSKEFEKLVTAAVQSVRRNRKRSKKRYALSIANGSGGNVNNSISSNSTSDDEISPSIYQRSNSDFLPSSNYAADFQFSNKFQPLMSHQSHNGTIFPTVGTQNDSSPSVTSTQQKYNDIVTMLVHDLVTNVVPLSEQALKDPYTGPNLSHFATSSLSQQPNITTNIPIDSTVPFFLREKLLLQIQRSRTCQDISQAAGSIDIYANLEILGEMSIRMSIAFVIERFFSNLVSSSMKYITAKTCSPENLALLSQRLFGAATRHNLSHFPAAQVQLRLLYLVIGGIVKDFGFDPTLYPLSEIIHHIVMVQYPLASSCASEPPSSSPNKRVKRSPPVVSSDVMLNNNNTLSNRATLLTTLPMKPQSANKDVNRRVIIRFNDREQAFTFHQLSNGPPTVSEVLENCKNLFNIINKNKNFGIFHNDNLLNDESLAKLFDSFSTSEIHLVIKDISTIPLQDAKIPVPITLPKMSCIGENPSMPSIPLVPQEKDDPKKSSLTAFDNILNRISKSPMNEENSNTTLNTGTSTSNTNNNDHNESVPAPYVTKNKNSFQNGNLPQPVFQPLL
Assay: PBM E-score (8-mer binding enrichment) (E-score (-0.5 to 0.5)); higher = stronger / more preferred TF binding; most listed sequences are background and not binding sites
Conditions: protein concentration: 200 nM; construct: GST-full length
Procedure, shortened: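 GST-tagged yeast TFs (full-length or DNA-binding domain) were made by PURExpress in vitro transcription/translation and applied at about 100-200 nM to universal all-10-mer Agilent arrays. The arrays were made double-stranded by primer extension, on fresh or once-stripped slides. Bound protein was detected with fluorescent anti-GST, and scans were normalised with masliner. Each ungapped eight-base word, pooled with its reverse complement, received an E-score (modified Wilcoxon-Mann-Whitney statistic) from the Universal PBM Analysis Suite.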

| Sequence | PBM E-score |
| --- | --- |
| CATTCACC | 0.0887 |
| CAAGGCTG | -0.0822 |
| GGCAGTCA | 0.345 |
| AACGTACA | -0.0325 |
| GGTAACTA | 0.12 |
| CGGCCGGC | -0.05 |
| CAGGAAAG | -0.207 |
| CCTAAAAG | -0.258 |
| AATTAGAC | -0.0756 |
| ATGACTAG | 0.369 |
| AGGAGCGA | -0.0524 |
| ATTGGTCA | 0.0198 |
| ATCCGGCA | 0.136 |
| CGACGGGA | 0.0975 |
| AGTAGTAA | 0.0586 |
| AGATATCG | 0.119 |
| AGGGACCG | -0.132 |
| CACTGTGA | 0.154 |
| CTCTTGAA | -0.243 |
| TAGTGGCA | -0.0381 |
| AAAGGCAG | -0.0316 |
| CAACGATC | -0.00177 |
| TCAACGGA | -0.0202 |
| ATCATCGA | 0.17 |
| TACGCAAA | -0.0838 |

| Sequence | PBM E-score |
| --- | --- |
| ATAGAACG | -0.109 |
| AGTCGAGA | 0.0118 |
| GCAAGAGC | -0.115 |
| GAATCCCC | 0.0139 |
| CACATCCG | 0.161 |
| ACTCAGTC | 0.314 |
| GCCAGTCA | 0.244 |
| CGATGACG | -0.154 |
| CCGATCTC | 0.0839 |
| CGGTACAG | 0.11 |
| AAGGACCT | -0.125 |
| CGGTTAAG | -0.167 |
| AGTGAATC | 0.109 |
| CTCTCGAC | -0.102 |
| GCGATTCA | 0.241 |
| AGCTGATC | 0.151 |
| AGCATAAT | 0.0173 |
| GCCCTCTA | -0.119 |
| AAAACATG | 0.153 |
| CAGTTACA | -0.0736 |
| ACGCTCAG | -0.107 |
| GCAGGGCA | -0.135 |
| CCGGGTCA | 0.0894 |
| CACATTTA | -0.0487 |
| CAGAAAGA | -0.138 |

| Sequence | PBM E-score |
| --- | --- |
| TGAAATCA | 0.069 |
| GCATACTA | 0.129 |
| CCTACCAG | -0.126 |
| CCTAGCTA | 0.166 |
| GAACCCCA | 0.0653 |
| CGACTAAC | 0.303 |
| ACCGATGA | 0.00055 |
| ATACAACC | 0.0739 |
| CCCATTCA | 0.203 |
| ACTTGAAA | -0.166 |
| AGGTTGTG | -0.0501 |
| ATGGCCGC | -0.206 |
| CACGTAGA | -0.0788 |
| CGTTTGGC | -0.0534 |
| CGTTCATA | -0.112 |
| CAACCTGA | 0.103 |
| CACGATAA | -0.0238 |
| CATGCCGC | 0.104 |
| GGTCGGCA | -0.138 |
| AAGAGGCT | -0.146 |
| ACATCTTC | 0.0278 |
| GATCGCGC | 0.0429 |
| TCCCTAGA | -0.171 |
| ATTTATCG | 0.0525 |
| CGAGTGCC | -0.0432 |

| Sequence | PBM E-score |
| --- | --- |
| AACAAGGA | -0.18 |
| GGAGCTCC | -0.0617 |
| CCTGGGCG | 0.0307 |
| ACCGTTAA | -0.0322 |
| GAGTTTGA | -0.077 |
| ACGGAAAC | -0.141 |
| ACCTGGCC | -0.00255 |
| CATATACG | 0.112 |
| GTAGCCAC | 0.0273 |
| GATGATGA | 0.144 |
| AAGATTTG | -0.09 |
| CAACGTCC | -0.169 |
| AAGATTGT | -0.0511 |
| ATTACTCC | 0.0722 |
| AGGGGAAA | -0.351 |
| AACTGCGC | -0.0351 |
| CCGTGACG | -0.0471 |
| AATTGGCG | -0.208 |
| CCTCGTTA | 0.113 |
| GCGGCTTA | 0.0596 |
| GTCAAATA | 0.103 |
| CTTATATA | 0.12 |
| CGCACTTC | -0.237 |
| AAATTACA | -0.0342 |
| GAGTAGGA | 0.0112 |

| Sequence | PBM E-score |
| --- | --- |
| CAACTAGA | -0.133 |
| AAGATATC | 0.144 |
| CTATTTGC | -0.203 |
| CTCGCATC | -0.0696 |
| AGCATGAA | 0.0889 |
| ATGACCTC | -0.0512 |
| AATGGTCT | -0.106 |
| ACTCAGCG | 0.133 |
| GGGCAAGA | -0.072 |
| CACGGCTC | -0.0633 |
| GCGTACAA | -0.0377 |
| ACTATGCG | 0.151 |
| CTTCAGAC | -0.157 |
| CTATGTTA | 0.122 |
| CCGTTTAC | -0.084 |
| CATGTACA | -0.0124 |
| GATTAGAA | -0.0196 |
| AACCAACT | 0.0869 |
| GTAGAGAC | -0.0289 |
| AAGTGTGC | -0.064 |
| CACTACCA | 0.208 |
| GCTGTTAC | -0.127 |
| ACGCATCC | 0.0371 |
| CCTTTTGA | -0.147 |
| CAGCGTGG | -0.0573 |

| Sequence | PBM E-score |
| --- | --- |
| ATTTGGTC | -0.0199 |
| ACATAACC | 0.125 |
| TCGATTAA | 0.145 |
| AGTGCGCC | -0.253 |
| CGGCTATA | 0.0118 |
| AACCCCTT | -0.186 |
| CTCCAAAA | -0.203 |
| CAAGCACC | -0.0743 |
| CTTACCTA | -0.0658 |
| GACTCGAC | 0.231 |
| GCCGAGAA | -0.0559 |
| AGTTTCTA | -0.268 |
| CTTTCAGC | -0.157 |
| GGTCTAAC | -0.0626 |
| ACCACACG | 0.0922 |
| GCCTGGTA | -0.109 |
| CATGGAGG | -0.101 |
| CTAGCGCC | -0.193 |
| CATCCTGC | 0.0558 |
| GCGATTAC | 0.0647 |
| GACCGCGA | -0.0638 |
| CCACTCAC | 0.177 |
| CCTTAATA | -0.0315 |
| GATGCATA | -0.00795 |
| ACTGGTGA | 0.122 |

| Sequence | PBM E-score |
| --- | --- |
| CCCCCCCA | -0.185 |
| CACTCTCC | 0.0076 |
| CAAGATAG | 0.0565 |
| GGTACAGA | 0.0603 |
| CGGAAAAG | -0.0336 |
| AACCAGCA | 0.037 |
| CTAGAGCC | -0.126 |
| CCACAACC | 0.0211 |
| AAGAGAGT | -0.117 |
| GCGTGAGA | -0.0971 |
| ATTTTTGC | -0.157 |
| AACCTTTC | -0.331 |
| ATTGTCGG | 0.13 |
| ATACTGCG | -0.00348 |
| AGTCACAA | 0.391 |
| CATGGTCC | 0.109 |
| CCCGACAC | -0.0659 |
| CAAGTTGG | -0.0134 |
| ATCCCATA | -0.0213 |
| AAGCGCGG | 0.062 |
| ATGAGGAA | -0.0839 |
| CCAAGCGA | -0.012 |
